# Test results as given in PubChem BioAssay AID1347073 (National Center for Advancing Translational Sciences (NCATS), 2019).
# Screen size: about 45,000 compounds; about 200 (0.44%) were called active. Not shown: some 7% with an inconclusive outcome. The call rests on the fitted dose curve; in most records, active means well fitted activation curve with a large enough effect; inconclusive means small, poorly fitted or top-dose-only effect; inactive means no such curve, though single readings can be large or run the other way. The list shows a part of the results.
# Assay: qHTS of TDP-43 Inhibitors: NCGC Sytravon Library Screen; further: 0% is about no effect; nearly all actives have a fitted effect of over 55% in size
# Conditions: yeast TDP-43 toxicity rescue, BacTiter-Glo growth, 24 h; series mostly up to 46.1 µM; growth rescue (activation): at the top concentration
# In short: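 TDP-43-expressing yeast, pregrown in raffinose, seeded at OD600 0.02 in galactose medium with compound for 24 hr at 30 deg C. Growth read by BacTiter-Glo luminescence, so rescue of toxicity appears as activation.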
row,Structure (SMILES),growth rescue (activation)
1,O=C(Nc1ccn(C2CC(OC(=O)c3ccccc3)C(CO)O2)c(=O)n1)c1ccccc1 (centres undefined),inactive: 16.8%
2,COc1ccc(-n2cnnc2SCC(=O)Nc2cc(C)on2)cc1,inactive: 15.2%
3,Cc1cccc(N(Cc2cc3ccccc3[nH]c2=O)S(=O)(=O)c2ccccc2)c1,inactive: -12.4%
4,CCCCCCNC(=O)C(=O)NCCc1ccc(Cl)cc1,inactive: 11.9%
5,Cc1cc(-n2cnnn2)cc(C)c1S(=O)(=O)N(C)c1ccccc1,inactive: 24.3%
6,Cc1cc(C)c(C(=O)O)c(Cl)n1,inactive: 12.1%
7,COc1ccc(NC(=O)C2CCN(c3nc(C)nc4c3CCC4)CC2)cc1,inactive: -5.77%
8,CCOc1ccc(/C=N/NC(=O)c2[nH]c3ccc(C)cc3c2C)cc1,inactive: 7.32%
9,Cc1ccc(OCCNC(=O)c2ccc3ccccc3n2)cc1,inactive: -42.6%
10,CS(=O)(=O)C1=NN2C(=N)/C(=C\c3ccc(OCCOc4ccccc4)cc3)C(=O)N=C2S1,inactive: 11.2%
11,COc1ccc(CNC(=O)c2[nH]c(C)c(C(C)=O)c2C)cc1,inactive: 4.52%
12,CCCNC(=O)C1(C)CCCN(Cc2cccs2)C1 (centres undefined),inactive: 1.74%
13,COc1ccc(C(=O)COC(=O)c2c(C)noc2C)cc1Cl,inactive: -1.21%
14,CCOC(=O)c1sc2ncn(/N=C/c3ccc(O)cc3)c(=O)c2c1C,inactive: 9.54%
15,COc1ccc(NC(=O)c2coc(C)c2)cc1,inactive: 7.44%
16,COc1ccccc1CNC(=O)COc1ccc2c(c1)CCC2,inactive: 31.7%
17,COc1ccc([N+](=O)[O-])cc1NC(=O)CCN1CCN(c2ccccc2OC)CC1,inactive: -6.89%
18,O=C(COC(=O)c1ccc(F)c(S(=O)(=O)N2CCOCC2)c1)Nc1ccc2c(c1)OCO2,inactive: 7.09%
19,O=C(Nc1nc2nccc(-c3ccccc3)n2n1)c1ccc(F)cc1,inactive: -2.25%
20,O=C(N=Nc1c(O)[nH]c2ccccc12)c1ccc(CN2CCOCC2)cc1,inactive: 1.7%
21,COc1ccc(NS(=O)(=O)c2ccc(C(=O)NCC3(N4CCOCC4)CCCCC3)cc2)cc1,inactive: -6.65%
22,COc1ccc(-c2nnnn2C)cc1S(=O)(=O)Nc1ccc(C)cc1C,inactive: 14.1%
23,CN1CCN(/N=C2/C(=O)Nc3ccc([N+](=O)[O-])cc32)CC1,inactive: -20.7%
24,CC(C)CNC(=O)COC(=O)c1ccc2c(c1)C(=O)N(Cc1ccco1)C2=O,inactive: -16.8%
25,CC(Sc1nnc(CNC(=O)c2ccccc2F)n1C)C(=O)Nc1nccs1 (centres undefined),inactive: -17.2%
26,COc1ccc(-c2csc(NC(=O)CSc3nc4ccccc4c(=O)[nH]3)n2)cc1,inactive: 11%
27,Cc1ccc(S(=O)(=O)N2CCOCC2)cc1C(=O)NCCCn1ccnc1,inactive: -4.31%

row,Structure (SMILES),growth rescue (activation)
1,CC(=O)c1ccc(OCCCC(=O)Nc2cccc(S(=O)(=O)N3CCOCC3)c2)cc1,inactive: 3.77%
2,CCc1ccc(NC(=O)Cn2c(=O)oc3cc(S(=O)(=O)N4CCCCCC4)ccc32)cc1,inactive: 6.46%
3,CCOc1ccccc1NC(=O)CN(c1ccc(OC)cc1OC)S(=O)(=O)c1ccccc1[N+](=O)[O-],inactive: 17.2%
4,CC1=C(C(=O)OC2CCCCC2)C(c2ccc(F)cc2)NC(=O)N1 (centres undefined),inactive: 11.7%
5,COc1ccccc1/C=C(\C#N)C(=O)Nc1ccc(S(N)(=O)=O)cc1,inactive: -22.4%
6,O=C(NCCNC(=O)c1cc(F)cc(F)c1)c1cc(F)cc(F)c1,inactive: -3.28%
7,COc1cc(/C=N/n2c(-c3ccc4c(c3)NC(=O)CO4)csc2=Nc2cccc(C)c2)ccc1O,inactive: 28.4%
8,CCNC(=O)C1(C)CCCN1C(=O)c1ccc(C#N)cc1 (centres undefined),inactive: -5.1%
9,O=C(c1ccccc1)c1cc(Cl)ccc1N1C(=O)C=CC1=O,inactive: -94.2%
10,COC(=O)c1cn(-c2ccccc2)c(=O)c2ccccc12,inactive: 13.3%
11,CCCC(C(=O)NC(C)(C)C)N(CC1CCCO1)C(=O)CNS(=O)(=O)c1ccc(F)cc1 (centres undefined),inactive: 0.0036%
12,CCOc1ccc(S(=O)(=O)NNS(=O)(=O)c2ccc(C)cc2C)cc1,inactive: 13.5%
13,CCC(=O)OCC(=O)Nc1ccc(OC)cc1[N+](=O)[O-],inactive: -4.47%
14,CC(C)CCNC(=O)CCn1c(=S)oc2ccccc21,inactive: 9.03%
15,CCOC(=O)c1cc(NC(=O)N(C)C2CCCCC2)c(C)nc1C,inactive: 6.37%
16,COc1ccc(NC(=O)Cc2c(C)n(C(=O)c3ccc(Cl)cc3)c3ccc(OC)cc23)cc1,inactive: 3.33%
17,CC(C)CC(=O)Nc1ccc(C(=O)NN2C(=O)c3ccccc3C2=O)cc1,inactive: 10.8%
18,C=CCc1c(O)c(CC)cc2c(C)cc(=O)oc12,inactive: 29.7%
19,COC(=O)c1ccc(NC(=O)CCn2cccc2)cc1,inactive: 31.4%
20,Cc1ccc(C(=O)NCCSC(C)(C)C)cc1[N+](=O)[O-],inactive: -25%
21,COc1ccc(C(=O)NNC2=C(C(=O)C(F)(F)F)CCC2)cc1,inactive: 14.9%
22,NC(=O)C1(N2CCCCC2)CCN(C(=O)Nc2ccc(C(F)(F)F)cc2)CC1,inactive: -4.19%
23,Cc1cc(Oc2ccc(C)c(Cl)c2)nc(SCC(=O)c2ccccc2)n1,inactive: 16.8%
24,CCSc1nnc(NC(=O)c2ccc3nc[nH]c3c2)s1,inactive: 2.38%
25,COc1ccc(OC)c(N(CC(=O)NN=C2CCN(C)CC2)S(=O)(=O)c2ccccc2)c1,inactive: 1.2%
26,CC(=O)Nc1ccc(C(=O)N2CCCC(c3cc(C(=O)Nc4ccccc4)no3)C2)cc1 (centres undefined),inactive: -14.7%
27,O=C1CSC(=S)N1/N=C/c1ccc2c(c1)OCCO2,inactive: -10.4%
